Measured values: paper PMC6919601, “Identification of Plasmodium dipeptidyl aminopeptidase allosteric inhibitors by high throughput screening” (PLoS ONE, 2019)
Several values for one entry are separate records, joined by “and”; a condition that tells them apart may be missing. Identical values can stand only once. In all, about 110,000 compounds went through this assay and about 230 (0.21%) showed an effect of 50% or more. The list shows a part of the results.

Target: DPAP1 (Plasmodium falciparum, UniProt Q8IIJ9)
Test: primary screen, percent inhibition; read by cleavage of a fluorogenic dipeptide substrate; higher = more effect of the substance
Parameters: species or system P. falciparum D10 trophozoite lysates; single well
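Note: 30 min substrate incubation versus DMSO and 10 µM JCP410 controls.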

DPAP1, sequence (Q8IIJ9 whole entry, looked up): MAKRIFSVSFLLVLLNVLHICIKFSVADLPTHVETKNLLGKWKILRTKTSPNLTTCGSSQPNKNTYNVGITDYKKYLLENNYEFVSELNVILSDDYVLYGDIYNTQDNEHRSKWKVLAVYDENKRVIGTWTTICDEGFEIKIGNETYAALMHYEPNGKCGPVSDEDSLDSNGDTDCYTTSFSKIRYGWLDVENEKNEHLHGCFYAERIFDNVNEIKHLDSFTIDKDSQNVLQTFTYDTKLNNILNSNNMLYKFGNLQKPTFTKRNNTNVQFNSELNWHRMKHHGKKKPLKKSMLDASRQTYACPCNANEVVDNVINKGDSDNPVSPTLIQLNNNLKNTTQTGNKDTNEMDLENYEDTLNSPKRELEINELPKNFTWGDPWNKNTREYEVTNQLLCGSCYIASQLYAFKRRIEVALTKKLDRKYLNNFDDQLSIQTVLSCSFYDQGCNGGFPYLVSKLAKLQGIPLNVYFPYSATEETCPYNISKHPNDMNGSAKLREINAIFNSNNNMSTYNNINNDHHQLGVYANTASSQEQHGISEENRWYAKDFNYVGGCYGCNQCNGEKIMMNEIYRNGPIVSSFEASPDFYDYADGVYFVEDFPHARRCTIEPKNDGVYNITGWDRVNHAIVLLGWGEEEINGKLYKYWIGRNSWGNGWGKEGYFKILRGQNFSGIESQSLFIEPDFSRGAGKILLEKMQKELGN

| SMILES | % Inhibition @ 10 uM |
| --- | --- |
| CCOc1cc(C2Nc3ccccc3N=C3CC(C)(C)CC(O)=C32)ccc1O (stereo not shown) | -2.56% |
| Cn1cnnc1SCC(=O)Nc1nc2ccccc2s1 | -2.87% |
| Cc1ccc(CNC(=O)C(Cc2ccccc2)NS(=O)(=O)c2cccc3cccnc23)cc1 (stereo not shown) | 0.981% |
| Cc1nc2c(-c3ccccc3)c(Cc3ccccc3)nn2c(O)c1Cl | 3.32% |
| Cn1nc(-c2ccccc2)c2c(C(=O)C(F)(F)F)cc(C(=O)C(F)(F)F)c-2c1-c1ccccc1 | -8.22% |
| Cc1cc(NC(=O)c2cc(-c3ccccc3C)nc3ccccc23)no1 | 3.86% |
| COc1cc(C2C3=C(O)CCCC3=NC(C)=C2C(=O)Nc2cccc(C)n2)cc(OC)c1OC (stereo not shown) | 4.11% |
| Cc1sc(NC(=O)C2C3C=CC(C3)C2C(=O)O)c(C#N)c1-c1ccc(C(C)C)cc1 (stereo not shown) | -0.413% |
| O=C(Nc1cc(O)nc(O)n1)c1cccc2ccccc12 | -3.37% |
| CCCN(CCC)C(=O)Cc1coc2ccc3ccccc3c12 | -1.43% |
| CCOC(=O)N1CCN(CC(O)COc2ccc(C(C)C)c(C)c2)CC1 (stereo not shown) | -6.3% |
| COC(=O)c1c(NC(=O)c2cc(OC)c(OC)c(OC)c2)sc(C)c1C | 22.8% |
| CC(C)C[C@@H](/C=C/S(C)(=O)=O)NC(=O)[C@H](C)NC(=O)C(c1ccccc1)c1ccccc1 | 0.079% |
| COc1ccc(CCNC(=O)c2cc(=O)c3ccc(C)c(C)c3o2)cc1OC | -11% |
| O=C1S/C(=C/c2ccc(OCCO)cc2)C(=O)N1CN1CCN(c2ccc(F)cc2)CC1 | -8.67% |
| Cc1onc(-c2ccccc2)c1C(=O)Nc1nnc(N(CC(C)C)CC(C)C)s1 | 3.29% |
| O=C1C(Cl)=C(Nc2cccc(O)c2)C(=O)N1c1ccccc1 | 4% |
| COCCNC(=O)CSCc1nc(-c2ccc(C)cc2)oc1C | -4.71% |
| Cc1ccc2oc(C(=O)NCc3ccccc3)cc(=O)c2c1 | -1.47% |
| CCON(C(=O)OC)c1c(F)c(F)c(N(OCC)C(=O)OC)c(F)c1F | -2.53% |
| Cc1cc(C)c(NC(=O)C(C)SCC(=O)Nc2ccccc2)c(C)c1 (stereo not shown) | 0.83% |
| CCc1nc2ccc(C(=O)NCc3ccccn3)cc2nc1CC | 2.77% |
| CC(C)c1ccc(OCC(=O)Nc2ccc(N3CCN(C)CC3)cc2)cc1 | 3.29% |
| Cc1ccc(Sc2ccncc2S(=O)(=O)NC(=O)NC2CCCCC2)cc1 | -5.21% |
| O=C(C1=CSCCO1)N1CCc2ccccc2C1 | 3.3% |

| SMILES | % Inhibition @ 10 uM |
| --- | --- |
| CC(C)CC(NCCC(O)c1ccccc1)C(=O)O (stereo not shown) | -5.11% |
| COc1cc(OC)c(OC)cc1/C=C1\N=C(c2ccc(Cl)c(Cl)c2)OC1=O | -7.76% |
| Cc1cc2c(n1-c1ccc(C(=O)NCC3CCCO3)cc1)CCC(C)C2 (stereo not shown) | -1.68% |
| O=C1/C(=C/c2ccc(O)cc2)C(=O)N(c2ccc(Br)cc2)C(=S)N1c1ccccc1 | 5.64% |
| CCc1cccc(C)c1NC(=O)CN(c1ccc(C)cc1)S(C)(=O)=O | 1.71% |
| C=CCOc1cccc(C=C2C(=O)NC(=O)NC2=O)c1 | 19.4% |
| N#C/C(=C(/O)c1cccc2ccccc12)c1nc2ccccc2[nH]1 | 1.37% |
| O=C(Nc1cccnc1)Oc1ccccc1 | -5.35% |
| Cc1cc(C)n(-c2nc3cc(Cl)ccc3nc2Cl)n1 | -2.8% |
| COc1ccc(CNC(=O)CCNS(=O)(=O)c2cc(Br)cnc2N)cc1 | 0.522% |
| CCOc1ccc(-n2cc(-c3ccccc3)c3c(NCC(C)O)ncnc32)cc1 (stereo not shown) | 4.92% |
| CC(C)Cc1c(C#N)c(N)nc(SCC(=O)c2cc3cc(Br)ccc3oc2=O)c1C#N | 2.3% |
| CCN1CCC(NCc2ccccc2C(F)(F)F)CC1 | -4.14% |
| CC1=C(C(=O)Nc2cccnc2)C(c2cccc(OCc3ccccc3)c2)n2ncnc2N1 (stereo not shown) | 0.279% |
| COc1ccc(-c2csc(Nc3ccccc3)n2)cc1 | 5.39% |
| Cc1sc2c(=O)n3c(nc2c1C(=O)NC1CCCCC1)CCCCC3 | -1.26% |
| COc1ccc(N(C)C(=O)c2sc(Cl)nc2C)cc1 | 0.907% |
| COc1cc(NC(=O)c2cccc(Br)c2)nc(OC)n1 | -0.413% |
| Cc1ccc2nc(O)c3cc(C(=O)NCCCN4CCCC4=O)sc3c2c1 | -2.16% |
| CCOc1cc(/C=C2/NC(=O)NC2=O)c(Br)cc1O | 0.487% |
| COC(=O)CSc1nc(C)c(C)c(C)c1C#N | 4.15% |
| CCOc1ccccc1C(=O)Nc1cccc(F)c1 | 0.00477% |
| O=C1c2ccccc2C(=O)c2cc(S(=O)(=O)N3CCCC3)ccc21 | -5.61% |
| Fc1ccccc1CN1CCN(c2ccccc2F)CC1 | 2.47% |
| O=C(NCCSc1c[nH]c2ccccc12)c1cccc2ccccc12 | 1.23% |

| SMILES | % Inhibition @ 10 uM |
| --- | --- |
| Cc1ccc(S(=O)(=O)N2CCC(C(N)=O)CC2)cc1C | -2.03% |
| COc1ccc(NC(=O)C(=O)NCCCn2ccnc2C)cn1 | 4.57% |
| CCC(C)(C)C1CCc2c(sc(NC(=O)c3cc(C)oc3C)c2C(N)=O)C1 (stereo not shown) | 5.15% |
| O=C(O)c1ccc(COc2ccc3c(c2)CCC3)o1 | 2.09% |
| O=C(c1cc2c(s1)-c1ccc(Cl)cc1SC2)N1CCCCC1 | 2.57% |
| Cc1cccc(NC(=S)NCc2ccco2)n1 | 4.63% |
| Cc1cc(/C=C2\SC(=O)NC2=O)c(C)n1-c1ccc(-c2ccccc2)cc1 | 1.39% |
| CCCCNc1nc(N)nc(-c2cc(Cl)ccc2O)n1 | 5.49% |
| CCNC(=O)C1CCN(S(=O)(=O)c2c(C)cc(C)cc2C)CC1 | -6.38% |
| CN1CCN(c2c3c(nc4ccccc24)C2(C)CCC3C2(C)C)CC1 (stereo not shown) | -3.15% |
| COCCNC(=O)C(Cc1ccccc1)N1Cc2ccccc2C1=O (stereo not shown) | -1.31% |
| COc1ccc(-c2nnc3oc(O)cc(C)c2-3)cc1 | -1.33% |
| Cc1nc(-c2ccccc2)sc1C(=O)NCc1ccccc1 | 3.95% |
| Cc1cccc(NC(=O)CN2C(=O)N/C(=C/c3ccc(-c4cccc(C(=O)O)c4C)o3)C2=O)c1 | 4.08% |
| Cc1nnc2c(NCc3ccccc3)nc3ccc(C(=O)c4ccccc4)cc3n12 | 0.454% |
| CC1CCN(S(=O)(=O)c2ccc3nc(-c4ccccn4)cc(C(=O)NCC4CCCO4)c3c2)CC1 (stereo not shown) | -2.72% |
| O=C(COc1ccc(S(=O)(=O)NC2CCCCC2)cc1)NCCC1=CCCCC1 | 3.74% |
| O=C(NC1(C(F)(F)F)NC(=O)N(C2CCCCC2)C1=O)c1ccc(Cl)cc1Cl (stereo not shown) | 1.03% |
| N#CC1=C(N)N(c2ccc(Cl)cc2)C2=C(C(=O)CCC2)C12C(=O)Nc1ccccc12 (stereo not shown) | 0.687% |
| Cc1nn(C)c(C(=O)NCc2ccc(Cl)cc2)c1Cl | 0.687% |
| CCCCC1(CC)Cc2ccccc2-c2nc(-c3ccccc3)nc(S)c21 (stereo not shown) | 0.986% |
| COc1ccccc1CCNCc1c(C(=O)O)c(C)n(Cc2ccccc2F)c1C | 4.79% |
| CCc1cccc(CC)c1NC(=O)CCN1C(=O)c2ccccc2C1=O | 1.83% |
| Cc1cc(NC(=O)c2ccc(-c3ccccc3F)o2)no1 | -2.05% |
| COc1cc2c(cc1OC)C(COc1ccc(F)cc1)N(C(=O)c1ccco1)CC2 (stereo not shown) | 3.04% |

| SMILES | % Inhibition @ 10 uM |
| --- | --- |
| CCCCCCc1nnc(NC(=O)CCCC)s1 | 0.927% |
| Cc1c(CNC(C)c2ccccc2)c(C(=O)O)c(C)n1Cc1ccccc1 (stereo not shown) | 8.86% |
| Cc1ccc(S(=O)(=O)O)c(C)c1N1CCCC1=O | -5.5% |
| COc1ccc(-n2c(N)c(-c3nc4ccccc4s3)c3nc(C#N)c(C#N)nc32)cc1 | -0.0626% |
| CC1=C(C(=O)Nc2cccnc2)C(c2ccc(Br)cc2)n2nc(-c3ccccc3)nc2N1 (stereo not shown) | -2.32% |
| CC(CNC(=O)c1cccnc1)NC(=O)c1cccnc1 (stereo not shown) | -1.82% |
| O=C(COc1ccccc1Br)N1CCCCC1 | -4.7% |
| Cn1cccc1C1Nc2ccccc2N=C2CC(C)(C)CC(O)=C21 (stereo not shown) | -0.759% |
| Cc1ccc(C(=O)N/C(=C/c2ccccc2)C(=O)Nc2nccs2)cc1 | 4.65% |
| CC(C)(C)c1ccc(CN(Cc2ccco2)C(=O)c2ccccc2)cc1 | 2.29% |
| Nc1ccc(-c2nc3cc(Cl)ccc3o2)cc1 | -1.44% |
| COc1ccccc1NC(=O)Nc1ccccc1C | 1.7% |
| COc1ccc(Br)cc1C1CC(=O)N2CN(Cc3ccco3)CSC2=C1C#N (stereo not shown) | 60.5% |
| CC(=O)N(CCc1ccccc1)C1CC(=O)N(c2ccc(Br)cc2)C1=O (stereo not shown) | -0.28% |
| COc1ccc(OC)c(NC(=O)c2ccc(C(=O)Nc3cc(OC)ccc3OC)cc2)c1 | 4.11% |
| Cc1ccsc1CCNS(=O)(=O)c1ccc2nc(O)ccc2c1 | 1.64% |
| CNC(=O)/C(=C\c1ccc2c(c1)OCO2)NC(=O)c1ccccc1 | -2.68% |
| COc1cc2c(cc1OC)CC1(CCCCC1)N=C2 | 1.13% and -3.63% |
| O=C(COc1cccc(Cl)c1)Nc1nc(-c2ccc(S(=O)(=O)N3CCOCC3)cc2)cs1 | -5.5% |
| COCCCNC(=O)CS(=O)(=O)Cc1nc(-c2cccc(Cl)c2)oc1C | 0.44% |
| COc1ccc(C(=O)c2c[nH]nc2-c2cc(C)ccc2O)cc1 | -2.53% |
| COc1ccc(OC)c(NC(=O)COc2ccccc2C)c1 | -4.49% |
| CCOc1ccc(S(=O)(=O)Nc2cc(SCC(=O)O)c(O)c3ccccc23)cc1 | 2.69% |
| O=C(CSc1nnc(CNC(=O)c2ccco2)n1-c1cccc(Cl)c1)Nc1nccs1 | -11% |
| Cc1nnc(N2CCC(C(=O)N3CCOCC3)CC2)c2nn(-c3ccccc3)c(C)c12 | -0.696% |
